Variants at the floor of the assay are shown more often than the library holds them.
B1: TPR 5TU (parent)
chain: GGAUCUUCUCGAUCUAACAAAAAAGACAAAUCUGCCACAAAGCUUGAGAGCAUCUUCGGAUGCAGAGGCGGCAGCCUUCGGUGGCGCGAUAGCGCCAACGUUCUCAACUAUGACACGCAAAACGCGUGCUCCGUUGAAUGGAGUUUAUCAUG

Variants of: B1
Assay: polymerase ribozyme fitness, log enrichment relative to wild type (log ratio); higher = more active; in vitro selection for triplet polymerase activity
In short: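 PCR was used to build mutant libraries for each subunit of a heterodimeric triplet polymerase ribozyme, which were then transcribed. A single in vitro selection round, in triplicate, used a frozen incubation at −7 °C and recovered extended constructs by gel excision, streptavidin beads and RT-PCR. Fitness is the logarithm of genotype enrichment relative to wild-type enrichment, averaged over replicates with inverse-variance weights. The logarithm is base 2, and after Illumina sequencing only genotypes with ≥10 input reads and ≥1 read per output were kept.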

Polymerase ribozyme fitness (log ratio), ≤ -4.2:
GGAUCUUCUCGAUCUAACAUACAAGACAAAUCUGCCACAAAGCUUGAGAGCAACUUCGGAUGCAGAGGCGGCAGCCUUCGGUGGCGCGAUAUCGCAAACGUUCUCAACUAUGACACGCAAAACGCGUGCUCCGUUGAGUGGAGUUUAUCAUG [A20U A22C U53A G92U C96A A138G]
GGAUCUUCUCGAUCUAACAUAACAGACAAAUCUGCCACAAAGCUUGCGAGCAUCGUCGGAUGCAGAGGCGGCAGCCUUCGGUGGCUCGAUGGCGCCAACGUUCUCAACUAUGACACGCAAAACGCGUGCUCCGUUGAAUGGAGUUUAUCAUG [A20U A23C A47C U55G G86U A91G]
GGAUCUUCUCGAUCUAACAUAACAGACAAAUCUGCCACAAAGCUUGAGAGCAUCUUCGGAUGCAGAGGCGGCAGCCUUUGGUGGCGCGAUAGCCUCAACGUUCUCAACUAUGACACGCAAAACGCGUGCUCCGUUGAAUGGAGUUUAACAUG [A20U A23C C79U G94C C95U U148A]
GGAUCUUCUCGAUCUAACAUAAGAGACAAAUCUGCCACAACGCUUGAGAGCAUCUUCGGAUGCAGAGGCGGCAGCCUUCGGUGGCGCGAUAGCGCCAACGUUCUCAACUAUGACACGCAAAACGCGUGCUCCGUUGAAUGGAGUUUAUCAUG [A20U A23G A41C]
GGAUCUUCUCGAUCUAACAUAAUAGACAAAUCUGCCACAAAGCUUGAGAGCAUCUUCGGAUGCCGAGGCGGCAGCCUUCGGUGGCGCGAUGGCGCCAACGUUCUCAGCUAUGACACGCAAAACGCGUGCUCCGUUGAAUGGAGUUUAUCAUG [A20U A23U A64C A91G A107G]
GGAUCUUCUCGAUCUAACAUAAUAGACAAAUCUGCCACAAAGCUUGAGAGCAUCUUGGGAUGCAGAGGCGGCAGCCUGCGGUGGCGCGAUAGCGCCAACGUUCUCAACUAUGACACGCAAAACGCGUGCUCCGUUGAAUGGAGUUUAUCAUG [A20U A23U C57G U78G]
GGAUCUUCUCGAUCUAACAUAAUAGACAAAUCUGCCACAAAGCUUGAGAGCAUCGUCGGAAGCAGCGGCGGCAGCCUUCGGUGGCGCGAUAGCGCCAACGUUCUCAACUAUGACACGUAAAACGCGUGCUCCGUUGAAUGGAGUUUAUCAUG [A20U A23U U55G U61A A66C C118U]
GGAUCUUCUCGAUCUAACAUAAACGUCAAAUCCGACACAAAGCUUGAGAGCAUCUUCGGAUGUAGAGGCGGCAGACUUCGGUGGCGCGAUAGCGCCAACGUUCUCAACUAUGACACGCAAAACGCGUGCUCCGUUGAAUGGAGUUUAUCAUG [A20U A24C A26U U33C C35A C63U C75A]
GGAUCUUCUCGAUCUAACAUAAACGACAAAUCUGCCACAAAGCUUGAGAGCAUCUUCGGAUGCAGACGCGGCAGCCUUCGGUGGCGCGAUAGCGCCAACGUUCUCAACUAUGACACGCAAAACGCGUGCUCCGUUGAAUGGAGUUUAUCAUG [A20U A24C G67C]
GGAUCUUCUCGAUCUAACAUAAAGGACACAUCUGCCAGAAAGCUUGAGAGCAUCUUCGGAUGCAGAGGCGGCAGCCUUCCGUGGCGCGGUAGCGCCAACGUUCUUAACUAUGACAGGCAAAACGCGUGCUCCGUUGAAUGGAGUUUAUCAUG [A20U A24G A29C C38G G80C A89G C105U C116G]
GGAUCUUCUCGAUCUAACAUAAAGGACAAAUCUGCCACAAAGCUUGAGACCAUCUUCGGAUGCAGAGGCGGCAGCCUUCGGUAGCGCGAUAGCGCCACCGUUCUCAACGAUGACGCGCAAAACGCGUGCUCCGUUGAAUGGAGUUUAUAAUG [A20U A24G G50C G83A A98C U109G A115G C149A]
GGAUCUUCUCGAUCUAACAUAAAUGACAAGUCUGCCACAAAGCUUGAGAGCAUCUUCGGAUGCAGAGGCGGCAGCCUUGGGUGGCGCGAUCGCGCCUACGUUCUCAACUAUGACCCGCAAAACGCGUGCUCCGUUGAAUGGAGUUUAUCAUG [A20U A24U A30G C79G A91C A97U A115C]
GGAUCUUCUCGAUCUAACAUAAAAGGCAAAUCUGCCACAAAGCUUGAGAGCAUCUUUGGAUGCAGAGGCGGCAGCCUUCGGUGGCGCGAUAGCGACAACGUUCUCAACUAUGACACGCAAAACGCGUGCUCCGUUGAAUGGAUUUUACCAUG [A20U A26G C57U C95A G143U U148C]
GGAUCUUCUCGAUCUAACAUAAAAGGCAAAUCUGCCACAAAGCUUGAGAGCAUCUUCGGAUGCAGAGGCGGCAGAUUUCGGUGGCGCGAUAGGGCCAACGUUCUCAACUAUUACACGGAAAACACGUGCUCCGUUGAAUGGAGUUUAUCAUG [A20U A26G C75A C76U C93G G112U C118G G124A]
GGAUCUUCUCGAUCUAACAUAAAAGGCAAAUCUGCCACAAAACUUGAGAGCAUCUUCGGAUGCAGAGGCGGCAGCUUUCGGUUGCGCGAUAGCGCCAACGUUCUCAACUAUGACACGCAAAACGCGUGCUCCGUUGAAUGGAGUUUAUCAUG [A20U A26G G42A C76U G83U]
GGAUCUUCUCGAUCUAACAUAAAAGACUAAUCUGCGACAAAGCUUGAGAGCAUCUUCGGAUGCAGAGGCGGCAGGCUUCGGUGGCGGGAUAGCGCCAACGUUCUCAACUAUGACACGCAAAACGCGUGCUCCGUUGAAUGGAGUUUAUCAUG [A20U A28U C36G C75G C87G]
GGAUCUUCUCGAUCUAACAUAAAAGACACAUCUGCCACAAAGCUUGAGAGCAUCUUCGGAUGCAGAGGCGGCAGCCUUCGGUGGCGCGAUAGCGCCAACGUUCUCAACUAUGACACGCAAAACGCGUGCUCCGUUGAAUGGAGUUUAUCAUG [A20U A29C]
GGAUCUUCUCGAUCUAACAUAAAAGACAGAUCUGCCACAAAGCUUGAGAGCAUCUUCGGAUGCAGAGGCGGCAGCCUUCGGUGGCGCGAUCGAGCCAACGUUCUCAACUAUGACACGCAAAACGCGUUCUCCGUUGAAUGGAGUUUAUCAUG [A20U A29G A91C C93A G128U]
GGAUCUUCUCGAUCUAACAUAAAAGACAACUCUGUCACAAAGCUUGAGAGCAUCUACGGAUGCAGAGGCGGCAGCCUUCGGUGGAGCGAUAGCGCCAACGUUCUCAACUAUGACACGCAAAACGCGUGCUCCGUUGAAUGGAGUUUAUCAUG [A20U A30C C35U U56A C85A]
